We go through 43 compounds from ChEMBL document CHEMBL4888484, “Replenishing the malaria drug discovery pipeline: Screening and hit evaluation of the MMV Hit Generation Library 1 (HGL1) against asexual blood stage Plasmodium falciparum ,using a nano luciferase reporter read-out” (2022).

Structures are written as SMILES. Several values for one entry are separate records, joined by “and”; a condition that tells them apart may be missing. Equal entries are not always repeated. Out of some 150,000 compounds screened, about 540 (0.36%) showed an effect of 50% or more. The list shows a part of the results.

In the experiment the test system is Plasmodium falciparum. Put plainly: Primary screen in NF54 nanoGlo assay, in single point, at 2uM, 72h; a lower Z score goes with more inhibition. It is filed as functional, Erythrocyte. The settings on record: timepoint 72 hour.

As usually defined, the % Inhibition is the change of the read-out against control, counted positive when it falls. For `COC(OC)[C@H](C)NC(=O)Nc1ccc(F)cn1`, the “% Inhibition” value is given as -3% and the Z score is reported as 0.42.
The matching figures for `Cn1c(=O)c2cn3c(c2n(C)c1=O)[C@@H](c1cc(Cl)ccc1O)Nc1ccccc1-3`: 1% and -0.27.
Turning to `COc1ccc(O)c(C(=O)N[C@H]2CC[C@H](OC)CC2)c1`, the “% Inhibition” value is 19% and the Z score is -2.44.
The corresponding values for `Cc1cnc([C@H](C)Nc2ccc(C#N)c(C)n2)s1` are -4% and 0.74.
The corresponding values for `CCc1noc(-c2cccnc2-n2cnc(C(=O)Nc3cccc(C)c3C)c2)n1` are -15% and 1.97.
The corresponding values for `O=C(NC1CCNCC1)C1(Cc2ccccc2)CC2CCC1C2` (stereo not given) are -4% and 0.32.
In the case of `Cc1cc(=O)c(C(=O)N2CCN(c3ncccc3C)CC2)c(C)[nH]1`, the “% Inhibition” value came out at 5% and the Z score is -0.65.
As for `O=C(NC1CC(N2CCCCC2)C1)c1coc(C2CCCCC2)n1` (stereo not given), the “% Inhibition” value was -7% and the Z score turned out to be 1.01.
As to `O=C(CN1CCCCC1)Nc1cccc2nonc12`, the “% Inhibition” value is 9% and the Z score is recorded as -1.29.
The corresponding values for `CCCCn1ncnc1-c1ccc(N(C)C)nc1` are -6% and 1.14.
Regarding `COCCC1(C(=O)Nc2cc(C(=O)N3CCCCC3)ccc2Cl)CCC1`, the “% Inhibition” value stood at 6% and the Z score is given as -0.74.
The corresponding values for `CCCCNC(=O)N1CCC[C@@H]1CS(N)(=O)=O` are 0% and 0.04.
The corresponding values for `COc1ccc2c(c1)[C@]1(C(=O)N2)C(C(=O)c2ccco2)[C@@H](c2ccc(Cl)cc2)CN1C` (stereo not given in full) are 1% and -0.16.
The corresponding values for `O=C1N[C@H]2CN(C(=O)c3ccc4c(c3)OCCO4)C[C@@H]2OCc2cn(nn2)CCOc2cccnc21` are -4% and 0.47.
Take `O=C(NCC[C@H](O)c1ccco1)c1ccccn1`: the “% Inhibition” value is given as -3% and the Z score amounted to 0.47.
`COc1ccc([C@@H]2C=C(c3ccc(Cl)cc3)N=C3NC(NC(=O)c4ccccc4OC)=NN32)cc1`: the “% Inhibition” value is listed as 96% and the Z score was -8.52.
The matching figures for `O=C(c1csc2c1CCCC2)N1CCCCCCC1`: 4% and -0.62.
On to `O=C1C[C@@H](C(=O)Nc2ccccc2)c2c(O)nc(N3CCOCC3)nc2N1`, for which the “% Inhibition” value (2 µM) is -12% and -3%.
In the case of `O=C(c1ccccc1)N1CCN(CCS(=O)(=O)Oc2ccccc2)CC1`, the “% Inhibition” value is on record as 10% and the Z score was -1.42.
With `CC(C)(CNC(=O)c1ccc2cc[nH]c2n1)C1CCOCC1`, the “% Inhibition” value was determined as 4% and the Z score is on record as -0.67.
Turning to `Cc1nc2cc(Br)cc(NC(=O)COc3ccc(F)cc3)c2o1`, the “% Inhibition” value was determined as 1% and the Z score is given as -0.15.
The matching figures for `O=C(NCCc1cn([C@H]2CCOC2)nn1)C1CCCCCCC1`: -7% and 1.41.
The matching figures for `CC[C@@H](C(=O)Nc1cc(C)ccc1OC)n1nc(C)c2c(C)onc2c1=O`: 10% and -0.97.
The corresponding values for `O=C(Nc1cccc(C=Cc2ccncn2)c1)C(F)(F)F` are 4% and -0.36.
Turning to `NC(=O)NC(=O)CN1CCCC1CC(O)c1cccs1` (stereo not given), the “% Inhibition” value is reported as -10% and the Z score stood at 1.02.
On to `Cc1nnc(COC(=O)c2cccc(C3OCCO3)c2)o1`, for which the “% Inhibition” value is -2% and the Z score stood at 0.31.
The corresponding values for `OCCn1c(CN2CCC[C@H](c3nc4ccccc4s3)C2)nc2ccc(Cl)cc21` are -14% and 2.3.
The corresponding values for `CCN1C[C@@H](CN(C)C(=O)c2cncc(O)c2)CC1=O` are -5% and 0.78.
The corresponding values for `Cc1ncc(COc2ccc3c(c2)CCO3)o1` are -8% and 0.78.
Regarding `Cc1cc(C)n(-c2ccc(Cn3c(C(F)(F)F)nc4ccccc43)cc2)n1`, the “% Inhibition” value is -4% and the Z score worked out at 0.41.
In the case of `CCc1cc(C(=O)NCc2ccco2)nc2cc(-c3ccco3)nn12`, the “% Inhibition” value was -2% and the Z score is reported as 0.26.
The corresponding values for `O=C(NCc1ccc(-n2cncn2)nc1)c1cccnc1` are 9% and -1.14.
For `CCC(=O)N1CCCC[C@H]1c1nnc2n1CCN(C(=O)c1ccncn1)C2`, the “% Inhibition” value turned out to be 2% and the Z score is -0.35.
The matching figures for `COc1ncc(NC(=O)Nc2ccc(F)cc2F)cn1`: -2% and 0.3.
The matching figures for `CC(=O)C(=CNc1ncc(C(F)(F)F)cc1Cl)C(C)=O`: -6% and 1.17.
The matching figures for `CC[C@](C)(NCCCN1C(=O)CNC1=O)c1nccs1`: -11% and 1.74.
Regarding `Cc1nc(-c2noc(-c3ccncc3)n2)cn1CC(=O)NCc1ccccc1`, the “% Inhibition” value was -1% and the Z score is reported as 0.09.
With `C[C@H](NCc1nnc(C2CC2)o1)c1ccc(F)cc1Cl`, the “% Inhibition” value is 1% and the Z score is -0.23.
The corresponding values for `Cn1cc(NC(=O)[C@H]2CC(=O)N(c3ccc(F)cc3)C2)cc1C(N)=O` are -9% and 1.69.
On to `CC(C1CC1)N(C)CC(=O)N1CCCCC1C` (stereo not given), for which the “% Inhibition” value is reported as -16% and the Z score turned out to be 2.01.
The matching figures for `COCCN1C(=O)Cc2ccccc2[C@@H]1C(=O)NCc1cccc(F)c1`: 1% and -0.15.
Regarding `CCCc1csc(CC(=O)NCc2ccco2)n1`, the “% Inhibition” value was -4% and the Z score came out at 0.52.
Regarding `CCCN(CCC)C(=O)c1c(CC)noc1C`, the “% Inhibition” value is listed as -2% and the Z score was found to be 0.32.
